Measured values as given in PubChem BioAssay AID1508624 (National Center for Advancing Translational Sciences (NCATS), 2021).
About 120 (0.25%) of roughly 48,000 compounds were called active. Roughly 4% stayed inconclusive and do not appear here. Calls come from the whole dose curve; as a rule, active = well fitted activation curve with a large enough effect; inconclusive = small, poorly fitted or top-dose-only effect, or another doubt; inactive = no such curve, though single readings can be large or run the other way. This is one part of the list.

Test: Primary qHTS for Identification of Small Molecule Activators of Huntingtin-Antisense Promoter Activity; note: nearly all actives have a fitted effect of over 55% in size
Conditions: HEK293 HTT-AS promoter firefly luciferase reporter, 24 h; at 57.5 µM (top of the series) unless noted
Source text: Assay Provider: Russell L. Margolis M.D.
Department Neurology, Johns Hopkins University School of Medicine, Baltimore, MD
Huntington's Disease (HD) is a neurodegenerative disorder caused by a CAG repeat expansion in exon 1 of huntingtin (HTT). While there are currently no disease-modifying treatments for HD, recent efforts have focused on development of nucleotide-based therapeutics to lower HTT expression. As an alternative to siRNA or oligonucleotide methods, we hypothesized that suppression of HTT expression might be accomplished by small molecules that either (1) directly decrease HTT expression by suppressing HTT promoter activity or (2) indirectly decrease HTT expression by increasing the promoter activity of HTT-AS, the gene antisense to HTT that appears to inhibit expression of HTT.
We developed and employed a high throughput screen for modifiers of HTT and HTT-AS promoter activity using luminescent reporter HEK293 cells; of the 52,041 compounds tested, we identified 898 replicable hits. We used a rigorous stepwise approach to assess compound toxicity and the capacity of the compounds to specifically lower huntingtin protein in 5 different cell lines, including HEK293 cells, HD lymphoblastoid cells, mouse primary neurons, HD iPSCs differentiated into cortical-like neurons, and HD hESCs. We found no compounds which were able to lower huntingtin without lowering cell viability in all assays, though the potential efficacy of a few compounds at non-toxic doses could not be excluded.
SEQUENCE No. (1, 2, 3, etc.); […] (e.g., Cells, Incubation, Reagent, etc.); VALUE and DESCRIPTION.
1; Reagent; 4 uL; 2,500 Hek293 luciferase reporter cells per wells
3; Compound; 23 nL; Control inhibitor / compound library
5; Reagent; 2.5 uL; Firefly Luc reagent; Dual-Glo Luciferase Reporter Assay System (Promega)
6; Time; 10 min; room temperature incubation
7; Detection; Luminescence; FLuc
NOTES (numbers refer to sequence above)
1; High-throughput screening, measuring luminescence from a Hek293 luciferase reporter, was performed in 1,536 well white-walled tissue-culture treated plates. 2,500 cells were plated in 4 µL of Opti-MEM per well using a Multidrop Combi Reagent Dispenser (ThermoFisher).
2; Assay plates were cultured for 24 hours.
3; Control inhibitor (PTC124; final concentration of 50 uM) and compound library (at final concentrations of 460 nM - 57.5 uM) were added to the assay plate using the Kalypsis Pintool Robotic System equipped with 1536 pinheads.
4; Cells were then incubated for 24 hours at 37 degrees C prior to luminescence measurements.
5; In all cases, luminescence was measured using the Dual-Glo Luciferase Reporter Assay System (Promega) following the manufacturer's instructions.
6; Room temperature incubation.
7; Luminescence signal was obtained using the PerkinElmer ViewLux plate reader. Results were normalized to vehicle control (0% activity) and zero RLU (-100% activity).

SMILES	activity change, positive = activation
CC1(C)C(C=C(Cl)Cl)C1C(=O)OC(C#N)c1cccc(Oc2ccccc2)c1 (stereo not given)	inactive: -2.57% [at 57.5 µM, percent change from vehicle, -100% = no light]
CCCCC12CN3CC(C)(CN(C1)C3c1ccccn1)C2=O (stereo not given)	inactive: -10.8% [at 57.5 µM, percent change from vehicle, -100% = no light]
CCOc1ccc(CN(CCc2ccc3c(c2)OCO3)Cc2ccc(C)cc2)cc1	inactive: -14.8%
CC(C)Cc1nc2cccnc2n1C1CCNCC1	inactive: -9.94% [at 57.5 µM, percent change from vehicle, -100% = no light]
CCN(CC)C(C)C(=O)c1ccccc1 (stereo not given)	inactive: -1.83%
Cc1cccc(-n2nc(C)c3c2NC(=O)CSC3c2ccccc2Cl)c1 (stereo not given)	inactive: -33.5% [at 57.5 µM, percent change from vehicle, -100% = no light]
COc1cc(CC#N)cc(OC)c1OC	inactive: -0.047%
CCC(C)C(C)(COC(N)=O)COC(N)=O (stereo not given)	inactive: -5.04%
Cc1cccc(CN2C(=O)CN=C(c3ccccc3)c3ccccc32)c1	inactive: -44.5%
COc1ccc(-n2c(/C=C/c3cccc(F)c3)nc3ccccc3c2=O)cc1Cl	inactive: -2.85%
Cc1ccc(NC(=O)Cn2cc(C(=O)c3ccccc3)c3ccccc32)c(C)c1	inactive: -35.7%
O=C(N[C@@H]1N=C(c2ccccc2F)c2cccc3c2N(CC3)C1=O)c1cc2ccccc2[nH]1	inactive: -10.8%
COc1cccc(C2SCC(=O)Nc3c2c(C)nn3-c2ccc(C)c(Cl)c2)c1OC (stereo not given)	inactive: -36.9%
CC(=O)Nc1ccc(OC[C@](C)(O)C(=O)Nc2ccc([N+](=O)[O-])c(C(F)(F)F)c2)cc1	inactive: -21.8%
COc1ccc2c3c1O[C@H]1[C@H](O)CC[C@H]4[C@@H](C2)N(C)CC[C@@]341	inactive: -5.97% [at 116 µM]
CC(C)=CCN1CC[C@@]2(C)c3cc(O)ccc3C[C@@H]1[C@@H]2C	inactive: -21.5% [at 116 µM]
Cc1cccc(-c2nn3c(=O)cc(CN4CCN(C(=O)COc5ccc(Cl)cc5)CC4)nc3s2)c1	inactive: -1.33%
O=c1c2ccccc2nc(/C=C/c2ccccc2F)n1-c1cccc(O)c1	inactive: -16.9%

SMILES	activity change, positive = activation
CCc1nc(SC)ncc1C(=O)Nc1ccc(Cl)cc1C(=O)c1ccccc1	inactive: -18.7% [at 57.5 µM, percent change from vehicle, -100% = no light]
O=C(Nc1ccc2c(c1)OCO2)c1cccn(Cc2cccc([N+](=O)[O-])c2)c1=O	inactive: -18.7%
C[C@](O)(COc1ccc(C#N)cc1)C(=O)Nc1ccc(C#N)c(C(F)(F)F)c1	inactive: -33%
CC=C(C)C(=O)N[C@@H](c1ccccc1)[C@@H](O)C(=O)O[C@H]1C[C@@]2(O)[C@@H](OC(=O)c3ccccc3)[C@@H]3[C@]4(OC(C)=O)CO[C@@H]4C[C@H](O)[C@@]3(C)C(=O)[C@H](OC(C)=O)C(=C1C)C2(C)C	inactive: -33.9%
COc1ccc(NC(=O)CCc2nc(C3=CCN(Cc4cccc(Cl)c4)CC3)no2)c(OC)c1	inactive: -25.9%
O=S1(=O)N(Cc2ccccc2Cl)CCCN1Cc1ccccc1Cl	inactive: -25.8% [at 57.5 µM, percent change from vehicle, -100% = no light]
CC1=C2[C@H]3OC(=O)[C@@H](C)[C@@H]3CC[C@@]2(C)C=CC1=O	inactive: -13.6%
C1CN2CCC1CC2	inactive: -1.56% [at 57.5 µM, percent change from vehicle, -100% = no light]
Cc1ccccc1OCC(=O)N1CCN(CCc2ccccn2)CC1	inactive: -7.44%
O=[N+]([O-])c1c2ccccc2cc2ccccc12	inactive: 13.9% [at 116 µM]
O=C(NC(=O)c1c(F)cccc1F)Nc1cc(Cl)c(OC(F)(F)C(F)C(F)(F)F)cc1Cl (stereo not given)	inactive: -14.2%
CNCC(=O)c1ccc(O)c(O)c1	inactive: -6.22%
Cc1ccccc1-n1c(/C=C/c2c(C)[nH]c3ccccc23)nc2ccccc2c1=O	inactive: -45%
COc1ccc(OCC(=O)N2CCN(CCc3ccncc3)CC2)cc1	inactive: -13.7% [at 57.5 µM, percent change from vehicle, -100% = no light]
Cc1ccccc1-n1nc(C)c2c1NC(=O)CSC2c1ccc(Cl)cc1 (stereo not given)	inactive: -24.1%
CC(C)N(CCNC(=O)CN1CCCC1=O)C(C)C	inactive: -8.25%
NC1=NC(=O)N2CC12 (stereo not given)	inactive: -5.22%
